The campaign covered roughly 350,000 compounds. About 180 (0.051%) were called active. This list was built around the results that the source calls inconclusive (neither active nor inactive); the mix of calls is not that of the screen.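 The calls were made as follows: active = mean replicate inhibition above about 25%, with every replicate also reaching it (limit read from the data, passing the limit was not always enough); inconclusive = only one of those two criteria met; inactive = neither criterion met.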 Where a SMILES comes first, the peptide text is derived from it. The star is where a group is joined. Boc = CC(C)(C)OC(=O)*; Bn = c1ccc(C*)cc1; NHNH2 = NN*
Each compound was assayed against Protein disulfide-isomerase A6 (Homo sapiens) (UniProt Q15084) (assay: inhibitors of ERp5-driven insulin aggregation, primary screen, biochemical, turbidity, absorbance 650 nm, single point (AID 651711)). Settings: 90 min, at 9.99 µM, stronger effect = higher value.
UniProt Q15084, sequence (Q15084 whole entry, looked up): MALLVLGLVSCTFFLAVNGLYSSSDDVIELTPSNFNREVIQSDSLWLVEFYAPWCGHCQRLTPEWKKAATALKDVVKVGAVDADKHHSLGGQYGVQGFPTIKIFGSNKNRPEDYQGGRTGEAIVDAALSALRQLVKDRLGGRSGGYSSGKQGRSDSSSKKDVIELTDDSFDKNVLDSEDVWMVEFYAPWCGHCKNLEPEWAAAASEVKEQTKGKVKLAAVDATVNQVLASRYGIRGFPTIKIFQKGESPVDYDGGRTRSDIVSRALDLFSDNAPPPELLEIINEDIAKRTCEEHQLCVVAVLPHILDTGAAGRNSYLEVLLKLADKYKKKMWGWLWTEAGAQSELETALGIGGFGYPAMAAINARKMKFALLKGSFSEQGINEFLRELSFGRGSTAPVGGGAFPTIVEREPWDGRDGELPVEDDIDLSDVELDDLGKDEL
With `CN1C(=S)N(c2cccnc2)C(=O)/C1=C\c1ccc(N(C)C)cc1` the inhibition was inactive: 0.013%.
In the case of `COc1ccc(CNC(=O)[C@@H]2CC=C[C@@H]3CCN(C4CCCCC4)C(=O)[C@@H]32)cc1`, the inhibition is reported as inactive: 1.62%.
With `O=C(OCC(=O)N1CCN(C(=O)c2ccco2)CC1)c1cncc(Br)c1` the inhibition was inactive: -1.45%.
In the case of `CCc1csc(CCNC(=O)C2CCC(=O)N(CCc3cccc(F)c3)C2)n1` (configuration not stated), the inhibition is reported as active: 28.3%.
For `O=[N+]([O-])c1ccc(Nc2nc(N/N=C/c3cccc(F)c3)nc(N3CCCC3)n2)cc1`, the inhibition was inconclusive: 41%.
With `CC(Oc1ccc2c3c(c(=O)oc2c1)CCC3)C(=O)N[C@@H](Cc1ccccc1)C(=O)O` (some centres not stated) the inhibition was inactive: 1.19%.
With `Cc1ccc(NC(=O)CSc2ncn[nH]2)cc1` the inhibition was inconclusive: 48.9%.
With `CC(NS(=O)(=O)c1ccc(OCC(=O)NCc2cccnc2)cc1)c1ccccc1` (configuration not stated) the inhibition was inconclusive: 34.8%.
With `CCOc1ccc(Cc2noc3c2C(=O)CCC3)cc1OCC` the inhibition was inconclusive: 49.2%.
`Cc1nn(C)c(C)c1S(=O)(=O)N1CCC(C(=O)NC2CCCc3ccccc32)CC1` (configuration not stated) was tested, and the inhibition was inconclusive: 31.8%.
`CC1(C)C(=O)Nc2ccccc2N1C(=O)CSc1nnc2c(Cl)cc(Cl)cn12` was tested, and the inhibition was inconclusive: 38.8%.
With `CCC(=O)Nc1ccc2c(c1)C(=O)N(C)[C@H]1CC[C@H](CC(=O)NCC3CC3)O[C@H]1CO2` the inhibition was active: 60.1%.
For `C[C@@H]1CN([C@@H](C)CO)C(=O)Cc2cc(NC(=O)CCC(F)(F)F)ccc2O[C@H]1CN(C)S(=O)(=O)c1ccccc1`, the inhibition was inactive: -0.395%.
With `CCOC(=O)C1(C)CCCCN1C(=O)c1ccc(F)c(C)c1` (configuration not stated) the inhibition was inactive: -3.25%.
For `CCCNC(=O)NC[C@@H]1[C@@H](c2ccc(C3=CCCCC3)cc2)[C@@H](CO)N1C(C)=O`, the inhibition was inactive: 1.98%.
For `Cc1ccc(OCc2nnc(NC(=O)c3cccnc3)s2)cc1`, the inhibition was inconclusive: 38.7%.
For `CC(C)CC(NC(=O)C(COCc1ccccc1)NC(=O)OC(C)(C)C)C(=O)NN` (configuration not stated) (Boc-Ser(Bn)-Leu-NHNH2; configuration not given here), the inhibition was inconclusive: 44.6%.
In the case of `CC1=C(C(=O)OCC2CCCO2)C(c2ccccc2)NC(=O)N1` (configuration not stated), the inhibition is reported as inconclusive: 43%.
With `NCc1ccccc1COc1ccccc1` the inhibition was inconclusive: 44.1%.
`COc1cccc(CC(=O)NNC(=O)CN(C)S(=O)(=O)c2ccc(C)cc2)c1` was tested, and the inhibition was active: 27.4%.
With `O=c1cc(COc2ccc(Cl)c(Cl)c2)nc2sccn12` the inhibition was inconclusive: 45.4%.
In the case of `CCC(=O)Nc1ccc(SC#N)cc1C`, the inhibition is reported as inconclusive: 27.4%.
For `C[C@@H]1CN([C@@H](C)CO)C(=O)c2cc(C#CC3CCCCC3)cnc2O[C@@H]1CN(C)S(=O)(=O)c1ccccc1`, the inhibition was active: 28.6%.
`O=C(CC1SC(=Nc2ccc(OC(F)F)cc2)N(CCC2=CCCCC2)C1=O)Nc1ccccc1F` (configuration not stated) was tested, and the inhibition was inconclusive: 28.4%.
`Cc1ccc2c(c1)C1CN(C)CCC1N2Sc1ccccc1[N+](=O)[O-]` (configuration not stated) was tested, and the inhibition was inconclusive: 39.8%.
For `CN(C)[C@@H]1CCC[C@@H]1OC(=O)C(c1ccccc1)c1ccccc1`, the inhibition was inconclusive: 45%.
With `O=C(CC(=O)N/N=C/c1ccccc1)NCc1ccccc1` the inhibition was inconclusive: 42.2%.
For `CC(=O)NN(O)C1N(C)C(=O)N(Cc2ccccc2)C1(C)C` (configuration not stated), the inhibition was inconclusive: 28.2%.
With `CCCC(=NCc1ccccc1)C1=C(O)C(C(=O)OC)C(C)(C)CC1=O` (configuration not stated) the inhibition was inconclusive: 29.6%.
With `Cc1noc(C)c1NC(=O)Nc1ccc2c(c1)C(=O)N([C@@H](C)CO)C[C@@H](C)[C@H](CN(C)CC1CC1)OCCCC[C@H](C)O2` the inhibition was inactive: 12.3%.
In the case of `COc1cccc(C2CC(c3cccs3)=NN2C(=O)CSc2nc3ccccc3s2)c1OC` (configuration not stated), the inhibition is reported as inconclusive: 45.1%.
With `O=C(C[C@H]1CC[C@H]2[C@@H](COC[C@H](O)CN2C(=O)c2cnccn2)O1)NCc1ccccc1` the inhibition was inconclusive: 25.8%.
`CC(=C\c1ccco1)/C=C1/SC(=S)N(CC(=O)O)C1=O` was tested, and the inhibition was inconclusive: 42.8%.
`C[C@H](CO)N1C[C@H](C)[C@H](CN(C)Cc2ccc(Oc3ccccc3)cc2)Oc2c(NC(=O)c3ccc(-c4nccs4)cc3)cccc2C1=O` was tested, and the inhibition was inconclusive: 26.8%.
`CCOP(=O)(OCC)c1nc(-c2ccc(Cl)cc2)oc1NCc1ccccc1` was tested, and the inhibition was inconclusive: 44.4%.
With `CCCC#Cc1ccc([C@@H]2[C@@H](CO)N3CCCCN(Cc4cncnc4)C[C@@H]23)cc1` the inhibition was inactive: -1.94%.
In the case of `CCN(CC(=O)Nc1c(F)cccc1F)C(=O)c1cc(S(=O)(=O)N(C)C)ccc1N1CCCC1`, the inhibition is reported as inactive: 6.93%.
`O=C(Cc1ccc(NC(=O)C2CCCN(C(=O)C3CC3)C2)cc1)Nc1cccc(C(=O)N2CCCCC2)c1` (configuration not stated) was tested, and the inhibition was active: 32.1%.
For `CC(=O)N1[C@@H]2Cn3c(cccc3=O)[C@H]1[C@@H](C(=O)NCc1ccc(F)cc1)[C@@H]2CO`, the inhibition was inactive: -1.66%.
For `COc1cc(NC(=O)c2cc(S(=O)(=O)N3CCCCC3)ccc2N2CCOCC2)cc(OC)c1OC`, the inhibition was inactive: -2.16%.
With `COc1ccc(CCNC(=O)Cn2cnc3sc(C)c(-c4ccc(F)cc4)c3c2=O)cc1OC` the inhibition was inconclusive: 44%.
In the case of `CC(C)NC(=O)Nc1ccc2c(c1)C(=O)N([C@H](C)CO)C[C@@H](C)[C@H](CN(C)S(=O)(=O)c1cccs1)OCCCC[C@@H](C)O2`, the inhibition is reported as inconclusive: 40.6%.
In the case of `CCCNC(=O)Nc1ccc2c(c1)OC[C@H](C)N(C(=O)C1CCC1)C[C@H](C)[C@@H](OC)CN(C)C2=O`, the inhibition is reported as inconclusive: 29.8%.
`C[C@@H]1CN([C@H](C)CO)C(=O)c2cccc(NC(=O)c3ccncc3)c2O[C@@H]1CN(C)Cc1ccc(-c2ccccc2)cc1` was tested, and the inhibition was inconclusive: 27.1%.
`CC(C)NS(=O)(=O)c1ccc(NC(=O)C(C)OC(=O)CCC2CCCC2)cc1` (configuration not stated) was tested, and the inhibition was inactive: 1.82%.
For `O=C(c1ccccc1)N1CCN(C(=O)c2ccc3c(c2)OCO3)CC1`, the inhibition was inactive: 4.41%.
In the case of `COc1ccc(C(=O)Nc2ccc3c(c2)C(=O)NC3=O)cc1`, the inhibition is reported as inconclusive: 58%.
For `O=C1[C@@H](c2ccccc2)CC[C@@H]2C=CC[C@H]3CCN1[C@@H]32`, the inhibition was active: 30.8%.
`CS(=O)(=O)c1ccc(C(=O)Nc2cc(S(C)(=O)=O)ccc2Cl)cc1` was tested, and the inhibition was inactive: 1.82%.
With `O=S(=O)(Nc1nc(SCc2ccc(Cl)cc2)n[nH]1)c1ccc(F)cc1` the inhibition was inactive: -0.996%.
With `C[C@@H]1CN([C@@H](C)CO)C(=O)c2cc(C3=CCCCC3)cnc2O[C@H]1CN(C)C(=O)c1ccc(F)cc1` the inhibition was inconclusive: 40.4%.
For `CC(C)NC(=O)Nc1ccc2c(c1)C(=O)N(C)[C@@H]1CC[C@H](CC(=O)NCC3CCCCC3)O[C@H]1CO2`, the inhibition was inactive: -3.89%.
For `CCC(=O)N1CC(=O)N2[C@H](CO)[C@H](c3ccc(C#CCc4ccccc4)cc3)[C@H]2C1`, the inhibition was inactive: 9.82%.
For `COCC(=O)Nc1ccc2c(c1)C(=O)N(C)C[C@H](OC)[C@@H](C)CN(C)[C@@H](C)CO2`, the inhibition was inactive: 1.28%.
With `OCCN=C1CCCc2c1[nH]c1ccc(Cl)cc21` the inhibition was inconclusive: 42.7%.
With `COC(=O)CCc1c(C)c(C(=O)c2ccc(F)cc2)c2ccccn12` the inhibition was inconclusive: 46.8%.
With `COc1cc(S(=O)(=O)N2CCN(C(=O)C3CC3)CC2)ccc1NC(C)=O` the inhibition was inconclusive: 39.5%.
With `Cc1ccc(S(=O)(=O)Nc2ccccc2CNc2ccccn2)cc1` the inhibition was inconclusive: 36.6%.
In the case of `C[C@H](CO)N1C[C@H](C)[C@@H](CN(C)S(=O)(=O)c2ccccc2)OCCCC[C@H](C)Oc2ccc(NC(=O)c3ccccc3)cc2C1=O`, the inhibition is reported as inactive: -0.689%.
With `Cc1cc(C)cc(C(=O)NC2C(=O)N3C(C(=O)O)=C(CSc4nnc(C)s4)CSC23)c1` (configuration not stated) the inhibition was inconclusive: 27.8%.
`Cc1noc(C(=O)Nc2c(C)nn(Cc3ccccc3)c2C)c1Cl` was tested, and the inhibition was inconclusive: 25.3%.
For `O=C(CSC1=NS(=O)(=O)c2ccccc21)Nc1ccccc1`, the inhibition was inactive: 8.22%.
For `Cc1c(C(c2cc(O)ccc2Cl)c2c(C)n(C)n(-c3ccccc3)c2=O)c(=O)n(-c2ccccc2)n1C`, the inhibition was inconclusive: 40.6%.
`COCCCN1C(=O)C(=O)/C(=C(/O)c2ccc(C)cc2)C1/C=C/c1ccccc1` (configuration not stated) was tested, and the inhibition was inconclusive: 40.6%.
`CO[C@H]1CN(C)C(=O)c2ccc(NC(C)=O)cc2OC[C@@H](C)N(C(=O)c2ccccn2)C[C@H]1C` was tested, and the inhibition was inactive: -1.78%.
For `CN1C(=O)c2cc(NC(=O)c3cccc(F)c3)ccc2OC[C@@H]2O[C@H](CC(=O)NCC3CCCCC3)CC[C@@H]21`, the inhibition was inconclusive: 38%.
In the case of `c1csc(-c2ccc3nncn3c2)c1`, the inhibition is reported as inactive: 5.39%.
For `CCOc1cc(S(=O)(=O)n2ccnc2)ccc1Br`, the inhibition was inconclusive: 30.5%.
`CS(=O)(=O)NN1C(=O)c2ccccc2NC1c1cccs1` (configuration not stated) was tested, and the inhibition was inconclusive: 43.7%.
`O=C(COc1ccc(/C=C\[N+](=O)[O-])cc1)N1CCOCC1` was tested, and the inhibition was inconclusive: 45.8%.
With `CC(=O)OCC1=C(C(=O)O)N2C(=O)C(NC(=O)c3ccc(F)cc3)C2SC1` (configuration not stated) the inhibition was inconclusive: 38.1%.
With `C[C@H](CO)N1C[C@H](C)[C@H](CN(C)C(=O)c2ccccn2)Oc2ncc(Br)cc2C1=O` the inhibition was inconclusive: 43.4%.
For `CC(C)Oc1nc(-c2ccccc2Cl)nc2ccccc12`, the inhibition was inactive: -3.8%.
For `C[C@H]1CN([C@@H](C)CO)C(=O)CCCn2cc(nn2)CO[C@@H]1CN(C)Cc1cccc(C(F)(F)F)c1`, the inhibition was active: 44.4%.
`COc1ccc(C(=O)Nc2cc(OC)c(Cl)cc2Cl)cc1` was tested, and the inhibition was inconclusive: 40.2%.
`CCOc1ccccc1NC(=O)C1CCN(C(=O)c2cccs2)CC1` was tested, and the inhibition was inconclusive: 41.8%.
In the case of `COC(CNC(=O)C1CCN(C(=O)c2cc3oc(C)cc3n2Cc2c(F)cccc2Cl)CC1)OC`, the inhibition is reported as inconclusive: 43.8%.

— PubChem BioAssay AID651711 (Broad Institute, 2012)
